Reference: PMC6424025, “Human DNA polymerase delta is a pentameric holoenzyme with a dimeric p12 subunit” (Life Science Alliance, 2019)
Results are given in words; binding and its absence hold for the method and conditions named. For some of these results: Binding seen in cells or lysates may run through a third protein. Some results given as binding are weak or reduced against the parent protein; the word gives no strength. For some of these results: Where a sequence is shown, tags or fusion partners need not be part of it. One block for each molecule: values may come before it.

Amino acid sequences for entries named in this document (tags omitted).
UniProt P28340: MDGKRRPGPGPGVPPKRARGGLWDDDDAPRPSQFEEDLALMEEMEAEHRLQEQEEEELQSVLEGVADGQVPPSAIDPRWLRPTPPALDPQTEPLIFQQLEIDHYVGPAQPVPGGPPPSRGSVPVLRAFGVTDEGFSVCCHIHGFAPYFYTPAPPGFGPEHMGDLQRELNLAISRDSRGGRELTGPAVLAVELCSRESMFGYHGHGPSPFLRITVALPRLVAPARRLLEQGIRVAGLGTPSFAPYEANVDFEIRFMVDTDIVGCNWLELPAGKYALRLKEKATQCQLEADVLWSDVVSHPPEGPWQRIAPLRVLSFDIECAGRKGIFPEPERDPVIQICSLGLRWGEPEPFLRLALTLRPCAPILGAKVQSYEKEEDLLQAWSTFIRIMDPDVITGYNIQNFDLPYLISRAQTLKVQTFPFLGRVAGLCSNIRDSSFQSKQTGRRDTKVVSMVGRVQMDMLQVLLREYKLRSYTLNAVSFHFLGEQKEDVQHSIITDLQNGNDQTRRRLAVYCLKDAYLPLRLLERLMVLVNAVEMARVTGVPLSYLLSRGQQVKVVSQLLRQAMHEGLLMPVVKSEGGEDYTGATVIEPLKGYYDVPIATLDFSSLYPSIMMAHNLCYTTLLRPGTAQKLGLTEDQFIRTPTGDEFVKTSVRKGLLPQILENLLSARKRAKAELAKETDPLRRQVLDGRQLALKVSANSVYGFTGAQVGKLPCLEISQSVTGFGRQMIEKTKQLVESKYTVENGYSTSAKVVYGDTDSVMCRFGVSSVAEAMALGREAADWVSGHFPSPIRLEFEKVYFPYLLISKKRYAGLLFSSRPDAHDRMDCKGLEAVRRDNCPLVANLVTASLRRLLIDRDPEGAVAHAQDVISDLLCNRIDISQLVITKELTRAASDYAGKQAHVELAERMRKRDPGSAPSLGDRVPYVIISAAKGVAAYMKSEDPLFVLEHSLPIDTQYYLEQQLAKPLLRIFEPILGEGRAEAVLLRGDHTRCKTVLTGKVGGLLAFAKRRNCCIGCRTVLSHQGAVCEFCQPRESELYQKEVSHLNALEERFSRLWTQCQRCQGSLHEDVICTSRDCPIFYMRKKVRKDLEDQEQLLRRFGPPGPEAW
UniProt P49005: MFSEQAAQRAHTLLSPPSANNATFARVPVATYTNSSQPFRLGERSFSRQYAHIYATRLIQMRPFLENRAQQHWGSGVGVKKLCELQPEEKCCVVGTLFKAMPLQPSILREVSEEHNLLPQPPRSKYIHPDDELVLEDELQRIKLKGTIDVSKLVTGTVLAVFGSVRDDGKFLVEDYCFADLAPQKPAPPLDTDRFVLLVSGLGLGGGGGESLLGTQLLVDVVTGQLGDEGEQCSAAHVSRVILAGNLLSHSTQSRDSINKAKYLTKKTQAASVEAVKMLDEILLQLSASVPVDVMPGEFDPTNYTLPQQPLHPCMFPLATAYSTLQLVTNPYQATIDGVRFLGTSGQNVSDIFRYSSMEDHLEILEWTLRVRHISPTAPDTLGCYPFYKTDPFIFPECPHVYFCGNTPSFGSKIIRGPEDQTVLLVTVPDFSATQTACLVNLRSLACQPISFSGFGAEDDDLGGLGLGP

Columns and labels:
[1] = biological target: T1, p12, wild type, expressed in HEK293 cells (GFP-p12 and FLAG-p12) (human) (UniProt Q9HCU8); experiment: co-IP; HEK293 cells transfected with GFP-p12; anti-GFP antibody-conjugated agarose beads, RIPA buffer; native subunits detected by subunit-specific antibodies
T1 sequence: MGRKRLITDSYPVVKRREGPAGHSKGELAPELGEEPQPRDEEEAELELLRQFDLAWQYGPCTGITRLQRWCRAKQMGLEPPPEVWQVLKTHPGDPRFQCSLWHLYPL

[2] = biological target: GST-p125, co-expressed in E. coli (human) (UniProt P28340); experiment: pull-down; GST-affinity purification of hPolδ from E. coli BLR (DE3) co-expressing GST-p125 and pCOLA-hPold234 (p50, p68, His-FLAG-p12) on glutathione-sepharose; bands authenticated by Western blot
[3] = biological target: native p125 of HEK293 cells (human (endogenous in HEK293)) (UniProt P28340); experiment: co-IP; HEK293 cells transfected with GFP-p12; anti-p125 antibody-conjugated agarose beads, RIPA buffer; subunits detected by subunit-specific antibodies, GFP-p12 by anti-GFP
[4] = biological target: T2, p12 R3A, K4A, R5A, yeast two-hybrid fusion (AD and BD) (human) (UniProt Q9HCU8); experiment: two-hybrid; HFY7C yeast, GAL4-AD and GAL4-BD fusions, HIS3 reporter, growth on Leu-Trp-His- medium, 2 d at 30°C
T2 sequence: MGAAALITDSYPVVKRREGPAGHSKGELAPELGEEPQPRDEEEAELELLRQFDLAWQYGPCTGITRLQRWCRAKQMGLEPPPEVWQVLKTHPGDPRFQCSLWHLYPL

[5] = biological target: p125 subunit of human DNA polymerase delta, yeast two-hybrid fusion (BD-p125) (human) (UniProt P28340); experiment: as above
[6] = biological target: p50 subunit of human DNA polymerase delta, yeast two-hybrid fusion (BD-p50) (human) (UniProt P49005); experiment: as above
[7] = biological target: T3, p12 L104A, Y105A, yeast two-hybrid fusion (BD) (human) (UniProt Q9HCU8); experiment: as above
T3 sequence: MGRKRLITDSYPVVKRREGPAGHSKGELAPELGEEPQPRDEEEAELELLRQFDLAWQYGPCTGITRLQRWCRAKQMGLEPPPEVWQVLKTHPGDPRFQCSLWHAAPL

[8] = biological target: p12, wild type, yeast two-hybrid fusion (AD-p12 and BD-p12) (human) (UniProt Q9HCU8); experiment: as above
[9] = biological target: T4, p68 subunit of human DNA polymerase delta, yeast two-hybrid fusion (BD-p68) (human), Q15054; experiment: as above; details: remark: other sources report otherwise
T4 chain: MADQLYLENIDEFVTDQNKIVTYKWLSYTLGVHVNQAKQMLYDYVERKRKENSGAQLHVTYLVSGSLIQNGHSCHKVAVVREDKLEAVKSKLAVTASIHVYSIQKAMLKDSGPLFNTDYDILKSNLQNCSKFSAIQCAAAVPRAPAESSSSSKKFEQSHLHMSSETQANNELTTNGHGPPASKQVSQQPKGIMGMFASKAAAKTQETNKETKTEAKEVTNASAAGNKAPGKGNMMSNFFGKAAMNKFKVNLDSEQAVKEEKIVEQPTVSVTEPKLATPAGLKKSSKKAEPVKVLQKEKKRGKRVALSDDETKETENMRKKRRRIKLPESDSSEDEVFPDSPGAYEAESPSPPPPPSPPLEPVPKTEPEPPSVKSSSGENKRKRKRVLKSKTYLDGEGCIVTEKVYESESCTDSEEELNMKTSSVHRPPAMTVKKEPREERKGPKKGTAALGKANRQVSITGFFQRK

[10] = biological target: T5, p12 R3A, K4A, R5A mutant, purified, GST tag cleaved off (human) (UniProt Q9HCU8); experiment: native gel or EMSA; 12% native PAGE, 80 V for 5 h at 4°C, 25 mM Tris base, 192 mM glycine, pH 8.8, Coomassie staining; migration compared with carbonic anhydrase or with the mutant; both purified
T5 sequence: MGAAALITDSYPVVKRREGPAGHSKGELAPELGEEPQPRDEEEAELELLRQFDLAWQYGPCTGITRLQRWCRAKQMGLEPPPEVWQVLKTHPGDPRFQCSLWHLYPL

[11] = biological target: T5, p12 R3A, K4A, R5A mutant, purified, GST tag cleaved off (human); experiment: SEC; about 10 μg of protein on Superdex 200 PC3.2/30, 50 mM Hepes pH 7.5, 150 mM NaCl, 10% glycerol, 4°C; both purified
[12] = biological target: T5, p12 R3A, K4A, R5A mutant, purified, GST tag cleaved off (human); experiment: cross-linking; 1-5 μg of protein in 20 mM Hepes pH 7.5, 0.5% formaldehyde, 30 min at 25°C, 12% SDS-PAGE, Coomassie; both purified
[13] = biological target: T5, p12 R3A, K4A, R5A mutant, purified, GST tag cleaved off (human); experiment: ITC; p12 (10 μM) in the cell, p12 (120 μM) in the syringe, 30°C, 20 mM Hepes pH 7.4, 150 mM NaCl, single-site model; dimer to monomers; both purified
[14] = biological target: T1, p12, wild type, expressed in HEK293 cells (GFP-p12 and FLAG-p12) (human); experiment: co-IP; HEK293 cells co-transfected with FLAG-p12 and GFP-p12 or GFP-p12 R3A, K4A, R5A; anti-FLAG agarose beads, RIPA buffer, blot with anti-GFP
[15] = biological target: Cdm1 K2A, K3A, R4A mutant, purified (S. pombe) (UniProt O59835); experiment: native gel or EMSA; 12% native PAGE, 80 V for 5 h at 4°C, 25 mM Tris base, 192 mM glycine, pH 8.8, Coomassie staining; migration compared with carbonic anhydrase or with the mutant; both purified

Molecule: p50, co-expressed in E. coli from pCOLA-hPold234 (from UniProt P49005 1-469)
binding [2]: binds

Molecule: native p50 of HEK293 cells (from UniProt P49005 1-469)
binding [3]: binds
binding [1]: binds

B4: p12 R3A, K4A, R5A, yeast two-hybrid fusion (AD and BD) (protein, UniProt Q9HCU8 1-107)
chain: MGAAALITDSYPVVKRREGPAGHSKGELAPELGEEPQPRDEEEAELELLRQFDLAWQYGPCTGITRLQRWCRAKQMGLEPPPEVWQVLKTHPGDPRFQCSLWHLYPL
binding [5]: binds
binding [6]: binds

B5: p12, wild type, yeast two-hybrid fusion (AD-p12 and BD-p12), Q9HCU8 1-107 (protein)
chain: MGRKRLITDSYPVVKRREGPAGHSKGELAPELGEEPQPRDEEEAELELLRQFDLAWQYGPCTGITRLQRWCRAKQMGLEPPPEVWQVLKTHPGDPRFQCSLWHLYPL
binding [9]: no binding

B6: p12 R3A, K4A, R5A mutant, purified, GST tag cleaved off (protein, UniProt Q9HCU8 1-107)
chain: MGAAALITDSYPVVKRREGPAGHSKGELAPELGEEPQPRDEEEAELELLRQFDLAWQYGPCTGITRLQRWCRAKQMGLEPPPEVWQVLKTHPGDPRFQCSLWHLYPL
binding [10]: no binding
binding [11]: no binding (tested: about 10 μg loaded)
binding [12]: no binding (tested: 1-5 μg of protein)

B7: p12 subunit of human DNA polymerase delta, wild type, purified, GST tag cleaved off (natural protein, UniProt Q9HCU8 1-107, looked up)
chain: MGRKRLITDSYPVVKRREGPAGHSKGELAPELGEEPQPRDEEEAELELLRQFDLAWQYGPCTGITRLQRWCRAKQMGLEPPPEVWQVLKTHPGDPRFQCSLWHLYPL
notes: DNA polymerase delta subunit 4 (p12), human; PCR product from pCOLA-hPold234; also called untagged p12; wild-type p12; source: E. coli BL21 DE3, purified (glutathione-sepharose; GST cleaved by PreScission protease); not shown: GST, N-terminal, cleaved
binding [13]: no binding (tested: 10 μM in the cell, 120 μM in the syringe)

B8: GFP-p12 R3A, K4A, R5A, expressed in HEK293 cells (protein, UniProt Q9HCU8 1-107)
chain: MGAAALITDSYPVVKRREGPAGHSKGELAPELGEEPQPRDEEEAELELLRQFDLAWQYGPCTGITRLQRWCRAKQMGLEPPPEVWQVLKTHPGDPRFQCSLWHLYPL
binding [14]: no binding

B11: p68, co-expressed in E. coli from pCOLA-hPold234 (protein, UniProt Q15054 1-466)
chain: MADQLYLENIDEFVTDQNKIVTYKWLSYTLGVHVNQAKQMLYDYVERKRKENSGAQLHVTYLVSGSLIQNGHSCHKVAVVREDKLEAVKSKLAVTASIHVYSIQKAMLKDSGPLFNTDYDILKSNLQNCSKFSAIQCAAAVPRAPAESSSSSKKFEQSHLHMSSETQANNELTTNGHGPPASKQVSQQPKGIMGMFASKAAAKTQETNKETKTEAKEVTNASAAGNKAPGKGNMMSNFFGKAAMNKFKVNLDSEQAVKEEKIVEQPTVSVTEPKLATPAGLKKSSKKAEPVKVLQKEKKRGKRVALSDDETKETENMRKKRRRIKLPESDSSEDEVFPDSPGAYEAESPSPPPPPSPPLEPVPKTEPEPPSVKSSSGENKRKRKRVLKSKTYLDGEGCIVTEKVYESESCTDSEEELNMKTSSVHRPPAMTVKKEPREERKGPKKGTAALGKANRQVSITGFFQRK
binding [2]: binds

The next lines start with the values.

binding [1]: binds
Molecule: native p125 of HEK293 cells (from UniProt P28340 1-1107)

binding [4]: no binding
binding [5]: binds
binding [6]: binds
binding [7]: binds
binding [8]: binds
B1: p12, wild type, yeast two-hybrid fusion (AD-p12 and BD-p12) (protein, UniProt Q9HCU8 1-107)
chain: MGRKRLITDSYPVVKRREGPAGHSKGELAPELGEEPQPRDEEEAELELLRQFDLAWQYGPCTGITRLQRWCRAKQMGLEPPPEVWQVLKTHPGDPRFQCSLWHLYPL

binding [3]: binds
binding [1]: binds
B2: native p12 of HEK293 cells (protein, UniProt Q9HCU8 1-107)
chain: MGRKRLITDSYPVVKRREGPAGHSKGELAPELGEEPQPRDEEEAELELLRQFDLAWQYGPCTGITRLQRWCRAKQMGLEPPPEVWQVLKTHPGDPRFQCSLWHLYPL

binding [2]: binds
B3: FLAG-p12, co-expressed in E. coli from pCOLA-hPold234 (His-FLAG-p12) (protein, UniProt Q9HCU8 1-107)
chain: MGRKRLITDSYPVVKRREGPAGHSKGELAPELGEEPQPRDEEEAELELLRQFDLAWQYGPCTGITRLQRWCRAKQMGLEPPPEVWQVLKTHPGDPRFQCSLWHLYPL

binding [14]: binds
binding [3]: binds
B9: p12, wild type, expressed in HEK293 cells (GFP-p12 and FLAG-p12) (protein, UniProt Q9HCU8 1-107)
chain: MGRKRLITDSYPVVKRREGPAGHSKGELAPELGEEPQPRDEEEAELELLRQFDLAWQYGPCTGITRLQRWCRAKQMGLEPPPEVWQVLKTHPGDPRFQCSLWHLYPL

binding [3]: binds
B10: native p68 of HEK293 cells (protein, UniProt Q15054 1-466)
chain: MADQLYLENIDEFVTDQNKIVTYKWLSYTLGVHVNQAKQMLYDYVERKRKENSGAQLHVTYLVSGSLIQNGHSCHKVAVVREDKLEAVKSKLAVTASIHVYSIQKAMLKDSGPLFNTDYDILKSNLQNCSKFSAIQCAAAVPRAPAESSSSSKKFEQSHLHMSSETQANNELTTNGHGPPASKQVSQQPKGIMGMFASKAAAKTQETNKETKTEAKEVTNASAAGNKAPGKGNMMSNFFGKAAMNKFKVNLDSEQAVKEEKIVEQPTVSVTEPKLATPAGLKKSSKKAEPVKVLQKEKKRGKRVALSDDETKETENMRKKRRRIKLPESDSSEDEVFPDSPGAYEAESPSPPPPPSPPLEPVPKTEPEPPSVKSSSGENKRKRKRVLKSKTYLDGEGCIVTEKVYESESCTDSEEELNMKTSSVHRPPAMTVKKEPREERKGPKKGTAALGKANRQVSITGFFQRK

binding [15]: no binding
B12: Cdm1 K2A, K3A, R4A mutant, purified (protein, UniProt O59835 1-160)
chain: MAAATTQAKKSGQNTNIRDVFPHVVRSNSSQSHIGKKVSSEQSPTPDVTITTKTLDERIKEDDELSKEVEEAWNQIMAERISEPIHCENITKVEFILHHFDTTARYGPYLGMTRMQRWKRAKNFNLNPPETVGKILMLEEADEENRKRESLFYDLQTIPG
